# Results published in PMC4336329 (PLoS ONE, 2015).
# The whole screen tested about 310,000 compounds, of which about 14,000 (4.5%) showed an effect of 50% or more. The effect is printed as a negative number. The list shows a part of the results.
# Target: human ether-à-go-go-related gene (hERG) potassium channel (human, UniProt Q12809)
# Assay: primary screen, population patch clamp on CHO cells stably expressing hERG
# 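Further: peak tail current of the secondary pulse compared with the same well before compound.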
# Sequence of human ether-à-go-go-related gene (hERG) potassium channel (Q12809 whole entry, looked up): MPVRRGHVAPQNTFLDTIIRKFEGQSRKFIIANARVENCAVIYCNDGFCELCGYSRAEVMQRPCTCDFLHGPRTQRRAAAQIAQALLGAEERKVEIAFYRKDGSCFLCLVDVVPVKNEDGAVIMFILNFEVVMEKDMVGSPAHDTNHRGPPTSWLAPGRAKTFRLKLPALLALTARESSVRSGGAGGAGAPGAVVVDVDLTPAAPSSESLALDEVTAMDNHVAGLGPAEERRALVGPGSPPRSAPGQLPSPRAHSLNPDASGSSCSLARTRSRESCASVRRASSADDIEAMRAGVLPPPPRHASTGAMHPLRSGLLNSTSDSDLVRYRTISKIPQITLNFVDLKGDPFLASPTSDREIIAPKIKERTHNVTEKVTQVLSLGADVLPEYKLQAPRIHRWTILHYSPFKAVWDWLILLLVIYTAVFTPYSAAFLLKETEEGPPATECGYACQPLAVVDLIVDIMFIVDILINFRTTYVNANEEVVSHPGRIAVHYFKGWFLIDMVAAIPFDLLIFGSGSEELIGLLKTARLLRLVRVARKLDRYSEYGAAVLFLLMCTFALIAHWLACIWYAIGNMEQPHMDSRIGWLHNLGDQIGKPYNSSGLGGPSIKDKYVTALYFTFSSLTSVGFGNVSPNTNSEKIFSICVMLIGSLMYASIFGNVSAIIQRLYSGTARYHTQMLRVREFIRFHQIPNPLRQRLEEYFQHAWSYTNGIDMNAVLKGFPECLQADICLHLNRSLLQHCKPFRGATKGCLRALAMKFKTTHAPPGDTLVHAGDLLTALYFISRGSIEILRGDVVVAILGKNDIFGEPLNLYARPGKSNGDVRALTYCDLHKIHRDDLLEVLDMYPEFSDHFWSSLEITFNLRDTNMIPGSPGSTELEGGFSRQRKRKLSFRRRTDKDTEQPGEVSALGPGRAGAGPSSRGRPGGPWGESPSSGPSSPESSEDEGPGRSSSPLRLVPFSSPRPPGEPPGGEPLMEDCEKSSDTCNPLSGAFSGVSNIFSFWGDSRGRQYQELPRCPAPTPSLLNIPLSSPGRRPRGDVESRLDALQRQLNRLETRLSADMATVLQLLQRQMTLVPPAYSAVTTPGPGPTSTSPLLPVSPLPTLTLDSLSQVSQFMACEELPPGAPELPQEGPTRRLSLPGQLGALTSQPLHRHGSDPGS
row,Compound,"hERG current change (%, negative = inhibition) at 10uM"
1,CCn1ccnc1CNCc1cn(-c2cc(C)ccc2C)nc1-c1ccccc1,-69.3%
2,O=C(Nc1ccc(COc2ccccc2)cc1)Nc1cccc(C(=O)O)c1,23.4%
3,Cc1ccc(C)c(NC(=S)N2CCN(c3cccc(C(F)(F)F)c3)CC2)c1,7.13%
4,O=C(CN1C(=O)C2CC=C(Cl)CC2C1=O)NCc1ccccc1 (stereo not drawn),-9.18%
5,COc1cc(/C=C2/NC(=O)NC2=O)cc(Br)c1OCc1ccccc1,6.18%
6,CCOC(=O)C1CCCN(c2nc(C)nc3c2oc2ccccc23)C1.Cl (stereo not drawn),-35.8%
7,Cc1cc(NCCNC2=CC(=O)CCC2)nc2ccccc12,-26.2%
8,O=C(CCCN=C1NS(=O)(=O)c2ccccc21)OCC(=O)N1CCc2ccccc21,12.7%
9,CCCCCC(=O)NC(=S)Nc1ccc(NC(=O)c2ccco2)cc1,2.58%
10,COc1cccc2[nH]c3c(N4CCC(C(N)=O)CC4)ncnc3c12,15.3%
11,Cc1csc2c(NC3CCN(Cc4ccccc4)CC3)ncnc12,-31.8%
12,CCc1nnc(NC(=O)CCC(=O)NCc2ccc(C)cc2)s1,24.7%
13,COc1ccc(S(=O)(=O)Nc2c(C)cc(C)cc2C)c2cccnc12,-4%
14,CCCC1=NN2C(=N)/C(=C\c3cc(C)n(Cc4ccccc4)c3C)C(=O)N=C2S1,-3.6%
15,CC(C)(C)NC(=O)NC(=O)COC(=O)CNC(=O)c1cc(Cl)cc([N+](=O)[O-])c1,16.9%
16,COc1cccc(NC(=O)CCc2nnc3ccc(N4CCC(C)CC4)nn23)c1,3.74%
17,COc1cc(OC)c(OC)cc1/C=C1/Cc2ccccc2C1=O,8.91%
18,CC(=O)NN(O)C1N(C)C(=O)N(Cc2ccccc2)C1(C)C (stereo not drawn),15%
19,S=c1[nH]nc(Cn2c(-c3ccccn3)nc3ccccc32)n1-c1ccc2c(c1)OCCO2,11%
20,CN(CC(=O)NCCc1ccccc1)S(=O)(=O)c1ccccc1,15.7%
21,CCOC(=O)COc1ccc2cc(C(=O)OCC)c(=O)oc2c1,-12%
22,Cc1cccc(C)c1OCC(=O)Nc1ccc2c(c1)OCCO2,-6.24%
23,CC(=O)Nc1cccc(NC(=O)CCn2cnc3cc(C)c(C)cc32)c1,-1.57%

row,Compound,"hERG current change (%, negative = inhibition) at 10uM"
1,COc1ccc(C(=O)Nc2ccc3nc(N4CCOCC4)sc3c2)cc1OC,7.05%
2,COC(=O)C1=C(c2ccc(F)cc2OCc2ccccc2)C[C@@H]2CC[C@H]1N2C(=O)NC1CCCCC1,-2.99%
3,Nc1nc(-c2ccco2)nn1C(=O)c1cccnc1,13.2%
4,CC(C)(C)C(=O)NC(=S)Nc1ccccc1C(=O)NC1CCCCC1,-18%
5,Cn1c(N)c(C(=O)COC(=O)CSc2ccccc2)c(=O)n(C)c1=O,-33.6%
6,CN(C)c1ccc(NS(=O)(=O)c2cc(Cl)ccc2Cl)cc1,-4.96%
7,CC(=O)Nc1ccc(S(=O)(=O)NC(C(=O)O)C(C)O)cc1 (stereo not drawn),25.3%
8,CCOC(=O)C(=O)Nc1ccc2c(c1)OCO2,7.92%
9,O=C(/C=C/c1ccccc1)NC1CC2CCCC(C1)N2Cc1ccccc1 (stereo not drawn),-69.7%
10,O=C(CCCCCn1c(=S)[nH]c2ccc(N3CCOCC3)cc2c1=O)NCc1cccc(Cl)c1,28.1%
11,CSc1nnc2ccc(-c3ccc(C)cc3)nn12,-19.8%
12,O=C(CNC(=O)c1ccc(S(=O)(=O)N2CCCC2)cc1)N/N=C/c1ccco1,-17.1%
13,Cc1cccc2c(=O)oc(-c3ccccc3Cl)nc12,14.2%
14,COc1ccc(C2CC(c3c(-c4ccccc4)c4cc(Cl)ccc4[nH]c3=O)=NN2C(=O)CCC(=O)O)cc1 (stereo not drawn),11%
15,C/C(=N\Nc1nc2ccccc2[nH]1)c1ccccn1,-72.8%
16,O=c1c2ccccc2c(-c2ccccc2)nn1-c1ccccn1,-2.1%
17,CC(=O)c1cc(CN2CCN(Cc3ccccc3)C(CCO)C2)cs1 (stereo not drawn),2.03%
18,COC(=O)NCC(c1cccnc1)N1CCN(c2ccccc2)CC1 (stereo not drawn),-13.3%
19,COc1ccc(OCC#CCN2CCC(C)CC2)cc1.O=C(O)C(=O)O,-11.4%
20,Cn1c(O)c(C=Nc2ccccc2)c(=O)n(C)c1=O,12.9%
21,Cc1ccccc1NC(=O)CCCCCN1C(=O)[C@@H]2Cc3ccccc3CN2C1=O,-10.4%
22,O=C(CCNC(=O)C1CCN(S(=O)(=O)c2ccc(F)cc2)CC1)NC1CC1,15.8%
23,CC(C)(C)NCC1(CO)SC(N)=NC1=O.O.O=S(=O)(O)O (stereo not drawn),6.34%

row,Compound,"hERG current change (%, negative = inhibition) at 10uM"
1,CNC(=O)CSc1nnc(-c2ccccn2)n1Cc1ccco1,-13.2%
2,COc1ccc(/C=N/N2CCN(c3ccc(Cl)cc3)CC2)cc1,13.4%
3,COC(=O)c1sc(S(=O)(=O)NC(C)C(=O)O)c(C(=O)OC)c1C (stereo not drawn),3.53%
4,Cc1ccc(-c2cc(C(=O)Nc3cccnc3)[nH]n2)c(O)c1C,3.9%
5,CCCC(C)C(=O)Nc1nc(C)c(-c2csc(Nc3cc(OC)ccc3OC)n2)s1 (stereo not drawn),14.4%
6,COc1ccccc1NC(=O)COc1ccccc1C(=O)Nc1ccccc1,27.6%
7,O=C(NC(=S)N1CCN(Cc2ccccc2)CC1)c1ccccc1,6.47%
8,O=C(COc1ncnc2ccccc12)N1CCOCC1,11.2%
9,Cn1c(=O)c2c(SCC(=O)N3CCOCC3)nc(C3CCCCC3)nc2n(C)c1=O,-2.3%
10,COC(=O)CSc1nc(NC(C)C)nc(N2CCOCC2)n1,-5.59%
11,Cc1cc(Cl)ccc1NNC(=O)c1snnc1C,9.93%
12,Cc1ccc(NC(=O)CCc2c(C)nc3ncnn3c2C)cc1,-9.42%
13,O=C(N/N=C/c1coc2ccccc2c1=O)c1cc(Br)c(O)c(Br)c1,20.6%
14,CC(C)(C#N)NC(=O)C1CCCN1S(=O)(=O)c1ccc2ccccc2c1 (stereo not drawn),-33.6%
15,COC(=O)c1ccc(C)c(NC(=O)CCSc2ccc(C)cc2)c1,-8.39%
16,O=C(Cc1cccs1)NCc1ccc(Cl)cc1,-15.3%
17,CCCCOc1ccc(C(=O)N/C(=C/C=C/c2ccccc2)C(=O)NCCO)cc1,-9.18%
18,Cc1ccccc1-n1ncc(C(C)NC(=O)c2ccco2)c1C (stereo not drawn),1.76%
19,Cc1ccc(OCc2cc(C(=O)N3CCCC(O)C3)no2)cn1 (stereo not drawn),17.7%
20,CC(=O)Cn1c(C(F)(F)F)nc2ccccc21,4.13%
21,CC(C)c1[nH]nc2c1C(C1C=CCCC1)C(C#N)=C(N)O2 (stereo not drawn),2.86%
22,N/C(=N\OC(=O)c1ccco1)c1cccnc1,16.8%
23,CCCCNC(=O)c1ccc2c(OCC)n(CCCC)nc2c1,-9.85%

row,Compound,"hERG current change (%, negative = inhibition) at 10uM"
1,NC(=O)C[n+]1cccc(/C=N/O)c1.[Cl-],13.9%
2,COc1ccc(NC(=O)c2[nH]c(C)c(C(C)=O)c2C)cc1S(=O)(=O)Nc1ccc(Br)cc1,3.34%
3,CCOC(=O)c1cc2cc(OC)ccc2nc1C,-7.74%
4,Cc1cc(OC(C)C(=O)NCc2ccncc2)c2c3c(c(=O)oc2c1)CCCC3 (stereo not drawn),-2.03%
5,Cc1nn(C)cc1S(=O)(=O)N1CCN(c2ccccc2F)CC1,-11%
6,Cc1cccc(CN2CCC(CNC(=O)CCNC(=O)Cn3ccc4ccccc4c3=O)CC2)c1,8.14%
7,Cc1cccc(C(=O)Nc2nnc(-c3ccc(C(C)(C)C)cc3)s2)c1,-8.1%
8,COc1ccc(CNC(=O)COC(=O)Cc2ccc(Cl)cc2Cl)cc1,6.99%
9,CC(=O)Nc1ccccc1N(C)S(=O)(=O)c1ccc(C)cc1,4.52%
10,O=C(OCn1nnc2ccccc2c1=O)C1=COCCO1,16.1%
11,Cc1ccc(S(=O)(=O)NCCC(=O)OCC(=O)NCCc2ccccc2)cc1C,-19.3%
12,N#C/C(=C\c1cn(CC(=O)N2CCCCC2)c2ccccc12)C(=O)NCc1ccc2c(c1)OCO2,-0.928%
13,Cc1cccc(CSC2=NCCN2C(=O)C2CC2)c1,-0.275%
14,Cc1nc(SC(C)C(=O)NC2CCCCC2C)c2c(C)c(C)sc2n1 (stereo not drawn),-0.981%
15,COc1ccc(CCNS(=O)(=O)c2ccc3c(c2)NC(=O)C(C)S3)cc1OC (stereo not drawn),20.3%
16,CCOC(=O)c1ccc(-c2c(-c3ccc4c(c3)OCO4)noc2C)cc1F,3.97%
17,CCOc1ccc(-c2nnn(CC(=O)N3CCCC3)n2)cc1OCC,13.8%
18,CCc1nnc(NC(=O)c2ccc(Br)o2)s1,21.7%
19,COc1ccc(N2CCOCC2)c(NC(=O)COc2cccc(C)c2C)c1,17.1%
20,Cc1cc(C)cc(NC(=O)N2CCCCCCC2)c1,12.4%
21,Cc1cc(=O)oc2c(C)c(OCC(=O)NC3CC(C)(C)NC(C)(C)C3)ccc12,-23.6%
